# ChEMBL document CHEMBL4888484, “Replenishing the malaria drug discovery pipeline: Screening and hit evaluation of the MMV Hit Generation Library 1 (HGL1) against asexual blood stage Plasmodium falciparum ,using a nano luciferase reporter read-out” (2022)
# In all, about 150,000 compounds went through this assay and about 540 (0.36%) showed an effect of 50% or more. The list shows a part of the results.
# Tested on: Plasmodium falciparum
# Assay: Primary screen in NF54 nanoGlo assay, in single point, at 2uM, 72h; a lower Z score goes with more inhibition
# Format: functional, Erythrocyte
# Conditions: timepoint 72 hour
Compound,% Inhibition,Z score
CCOc1ccc(C(=O)N2C3C=CCC2CC3)cc1OCC (stereo not drawn),-13%,2.31
O=c1ccn(CCOc2cc(Cl)cc(Cl)c2)c(Cl)c1,-9%,1.88
Cc1csc(NC(=O)c2ccc(OC[C@H]3CCCO3)nc2)n1,-20%,3.84
Cc1cc(C)nc(NCCC(=O)Nc2nccs2)n1,4%,-0.65
C[C@H](NC(=O)C1CCCC1)C(=O)N(C)Cc1ccsc1,-11%,1.12
O=c1c2ccccc2c(-c2nc(-c3ccc(F)cc3)no2)nn1-c1ccccc1,27%,-3.12
CC(C)c1n[nH]c([C@@H]2CN(Cc3nc4ccccc4n3C)CCO2)n1,-13%,1.98
COC1(OC)CCOC[C@@H]1CCNCc1c(F)cccc1F,-9%,1.78
CC1CCNC(C)C1NC(=O)Cc1ccc(O)cc1 (stereo not drawn),-9%,1.33
CC1(C)Cc2nc(N3CCOCC3)ncc2[C@@H](N)C1,2%,-0.29
N#Cc1cnc(N[C@H]2C[C@@H](O)C2)c(Cl)c1,2%,-0.3
Cc1nc(N)nc(C)c1CC(=O)N1CCC[C@H]1c1nc(-c2ccccn2)no1,-16%,2.34
CN(Cc1n[nH]c2c1CCCCC2)C(=O)c1nc(N)n[nH]1,13%,-2.17
CCC1CC1NC(=O)NCC(C)(O)c1cnn(C)c1 (stereo not drawn),-4%,0.36
Cc1cc(N2CCN(c3ccccn3)CC2)n2cc(-c3ccccc3)nc2n1,42%,-5.35
Cc1ncn(Cc2ncc(-c3cccs3)o2)c1C,-11%,2.05
C(=C\c1cccc(-n2cnnc2)c1)/c1ccccc1,-14%,1.74
CC(=O)N1CCN(C(=O)Nc2ccccc2)C[C@H]1C(=O)N[C@@H](CC1CCCCC1)C(N)=O,0%,-0.07
CCn1nc(C)c(CN[C@@H](C)c2cccc(-n3cccn3)c2)n1,4%,-0.7
c1ccc2cc(CN3CC[C@@]4(CCCNC4)C3)ccc2c1,-6%,0.78
COc1cc(OC)cc(-c2nc(-c3nnn(-c4ccc(F)cc4)c3C)no2)c1,-15%,2.47
Cc1csc(S(=O)(=O)N2C[C@@H]3CC[C@H]2CN(Cc2ccccc2)C3)c1,-1%,0.14
Cc1nc(-c2cccc(NC(=O)c3ccc(N4CCOCC4)nn3)c2)cs1,-13%,1.77
Cc1ccc(F)c(NC(=O)[C@H]2CN(S(=O)(=O)C3CC3)CC23CCCCC3)c1,-8%,1.19
